Assay results from publication PMC4336329 (PLoS ONE, 2015).
Screen size: about 310,000 compounds; about 2,200 (0.71%) showed an effect of 50% or more. The effect is printed as a negative number. This is one part of the list.

target: human ether-à-go-go-related gene (hERG) potassium channel (human, UniProt Q12809); test: primary screen, population patch clamp on CHO cells stably expressing hERG
Sequence (Q12809 whole entry, looked up): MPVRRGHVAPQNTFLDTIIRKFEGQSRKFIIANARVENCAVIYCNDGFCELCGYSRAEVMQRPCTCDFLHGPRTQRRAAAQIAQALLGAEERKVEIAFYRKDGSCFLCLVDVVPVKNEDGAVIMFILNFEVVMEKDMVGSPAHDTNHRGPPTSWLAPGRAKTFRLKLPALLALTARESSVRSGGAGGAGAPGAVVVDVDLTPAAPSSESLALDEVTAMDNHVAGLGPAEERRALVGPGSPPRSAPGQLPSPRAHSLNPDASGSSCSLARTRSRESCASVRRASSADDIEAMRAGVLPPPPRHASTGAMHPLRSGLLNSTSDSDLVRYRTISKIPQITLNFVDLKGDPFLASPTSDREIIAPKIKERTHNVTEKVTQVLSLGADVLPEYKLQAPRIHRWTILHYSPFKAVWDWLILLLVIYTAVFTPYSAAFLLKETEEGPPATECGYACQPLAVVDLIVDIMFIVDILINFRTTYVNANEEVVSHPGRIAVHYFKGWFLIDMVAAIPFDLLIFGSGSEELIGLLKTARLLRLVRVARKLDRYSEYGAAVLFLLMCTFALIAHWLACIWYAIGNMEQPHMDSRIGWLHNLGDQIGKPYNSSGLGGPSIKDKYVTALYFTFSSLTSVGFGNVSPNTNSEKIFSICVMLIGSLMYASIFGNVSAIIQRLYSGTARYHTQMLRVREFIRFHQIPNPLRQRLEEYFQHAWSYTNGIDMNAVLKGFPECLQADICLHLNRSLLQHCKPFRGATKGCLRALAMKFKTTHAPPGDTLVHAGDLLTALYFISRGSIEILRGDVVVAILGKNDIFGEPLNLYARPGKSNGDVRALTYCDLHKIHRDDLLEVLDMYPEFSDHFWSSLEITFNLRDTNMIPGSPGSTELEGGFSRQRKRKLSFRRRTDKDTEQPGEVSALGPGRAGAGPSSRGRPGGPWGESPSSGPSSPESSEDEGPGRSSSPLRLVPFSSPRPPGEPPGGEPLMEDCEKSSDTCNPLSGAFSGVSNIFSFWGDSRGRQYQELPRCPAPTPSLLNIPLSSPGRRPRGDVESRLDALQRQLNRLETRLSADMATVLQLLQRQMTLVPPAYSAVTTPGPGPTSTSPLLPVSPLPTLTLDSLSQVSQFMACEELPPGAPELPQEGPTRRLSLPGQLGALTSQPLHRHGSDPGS

Point of comparison: N#Cc1c(F)cccc1N1CCOCC1, “hERG current change (%, negative = inhibition) at 1uM” value 15.1%. Against it:
- CC(=O)c1ccc(C(=O)NC2CCCN(Cc3ccc(Cl)cc3)C2)s1 (stereo not shown) — lower, -28.7%
- Cc1cccn2c(=O)c(C=C(C#N)C#N)c(N3CCN(C)CC3)nc12 — lower, 11.8%
- COc1ccc(NC(=O)COC(=O)/C=C/c2cccs2)c(OC)c1 — lower, -2.57%
- CC(C)(C)c1nn2cnnc2n(/N=C/c2ccc(O)cc2)c1=O — lower, -1.39%
- COc1ccc(CCNC(=O)CNS(=O)(=O)c2ccc(Br)cc2)cc1 — lower, 12%
- CC1=CC(c2ccc(Cl)cc2)n2ncnc2N1 (stereo not shown) — lower, 8%
- CCc1ccccc1NC(=O)NNC(=O)CCc1ccc(OC)cc1 — higher, 16.3%
- CC1CCCCC1NS(=O)(=O)CCNC(=O)c1ccccc1 (stereo not shown) — lower, 10.2%
- COc1ccc(S(=O)(=O)Nc2ccc(NC(C)=O)cc2)cc1Cl — lower, 10.3%
- O=C(OC(c1ccccc1)c1nccc2ccccc12)c1cc([N+](=O)[O-])cc([N+](=O)[O-])c1 (stereo not shown) — higher, 19.3%
- C[C@H](N)c1nnc(SCC(=O)N(C)C)o1.Cl — lower, 2.17%
- O=C1c2ccccc2C(=O)N1CCCCON1C(=O)c2ccccc2C1=O — lower, 10.3%
- O=C(Cn1c(=O)sc2ccccc21)Nc1ccc(O)cc1 — lower, 12.2%
- COc1ccccc1-c1cc(C(=O)Nc2c(F)cc(F)cc2Br)no1 — lower, -2%
- COc1ccc2cnnc(SCC(=O)Nc3ccc(C(=O)O)cc3)c2c1OC — lower, 2.85%
- Cn1cnc([N+](=O)[O-])c1Sc1ccc(C(C)(C)C)cc1 — lower, 4.26%
- Cc1cc(C)c(S(=O)(=O)N2CCCOC2CNC(=O)C(=O)NCCC2=CCCCC2)c(C)c1 (stereo not shown) — lower, 9.54%
- Cc1cccc(Nc2nc(NCc3ccco3)nc(N3CCOCC3)n2)c1 — lower, -18%
- COc1ccccc1NC(=O)N1CCc2[nH]c3ccc(Cl)cc3c2C1 — lower, 4.85%
- COC(=O)c1ccc(NC(=S)N2CCN(Cc3ccccc3OC)CC2)cc1 — lower, 6.63%
- Cc1cccc(N2CCN(C(=O)c3ccccc3NC(=O)C3CC=CCC3C(=O)O)CC2)c1 (stereo not shown) — lower, 14.9%
- O=C(/C(=C(\[O-])c1ccccc1)[n+]1ccc2ccccc2c1)c1ccccc1 — lower, -2.07%
- O=C(O)c1cncc(SCc2ccccc2)n1 — lower, 8.34%
- O=C(C1COc2ccccc2O1)N1CCc2ccccc21 (stereo not shown) — lower, 13.3%
- Cc1c(C(=O)NNC(=O)c2csc(N3CCOCC3)n2)oc2ccccc12 — lower, -4.69%
- FC(F)(F)C1=NC(C(F)(F)F)=NP(N2CCOCC2)(N2CCOCC2)=N1 — lower, 8.04%
- CCOc1ccc(CN(CCO)CCO)cc1[N+](=O)[O-].Cl — lower, -44.1%
- Cc1cc(C)c(S(=O)(=O)NC2CC2)c(C)c1 — lower, 10.2%
- c1ccc(C2NCCc3[nH]cnc32)cc1 (stereo not shown) — lower, 5.64%
- CN(C)C(CNC(=O)CSc1nnc(-c2ccco2)o1)c1ccccc1 (stereo not shown) — lower, 9.23%
- COc1ccc(NC(=O)c2ccc(-n3cccn3)nc2)cc1 — lower, 11%
- COc1ccc(-c2cc3ccccc3nc2N)cc1OC — lower, 10.4%
- Cc1ccc(OCC(=O)N2CCC(Cc3ccccc3)CC2)c([N+](=O)[O-])n1 — lower, -32.1%
- Cc1cccc(N2CCN(C(=O)c3c(Cl)cnn3C)CC2)c1C — lower, -7.51%
- COc1cccc(NC(=O)c2sc(Cl)nc2C)c1 — higher, 25.1%
- CCN1CCN(Cc2ccc(NC(=O)c3cc(NC(=O)c4cnnc5ccccc45)cc(OC)c3)cc2C(F)(F)F)CC1 — lower, 8.23%
- Cc1nc(-c2ccc([N+](=O)[O-])cc2)nc2[nH]ccc(=O)c12 — lower, 14.5%
- CCCNS(=O)(=O)c1ccc(OCC(=O)N2CCc3ccccc3C2)c(C)c1 — lower, -21%
- C/C=C/c1c(F)c(F)c(Oc2ccc(C(=O)O)cc2)c(F)c1F — lower, 4.99%
- CNS(=O)(=O)c1cccc(C(=O)OCC(=O)Nc2ccc(Cl)cc2F)c1 — lower, 10.5%
- CCn1c(=O)n(CC)c2cc(S(=O)(=O)N3CCc4ccccc43)ccc21 — lower, 14%
- CC(NC(=O)C1CCC(CNS(=O)(=O)c2ccccc2)CC1)c1ccccc1 (stereo not shown) — lower, 14.8%
